In EPA's CvTdb concentration-time database:
The source gives many values for each of these; only a part stands here.

What was measured:
Rat [1] = experiment: concentration in brain after dosing; settings: 1.5 h; dosed: 2-Methyltetrahydrofuran; 400 mg/kg; oral; Female; F344
Rat [2] = experiment: concentration in brain after dosing; settings: 3 h; dosed: 2-Methyltetrahydrofuran; 10 mg/kg; iv; Female; F344
Rat [3] = experiment: concentration in brain after dosing; settings: 0.25 h; dosed: 2-Methyltetrahydrofuran; 10 mg/kg; iv; Female; F344
Rat [4] = experiment: concentration in brain after dosing; settings: 0.75 h; dosed: 2-Methyltetrahydrofuran; 100 mg/kg; oral; Female; Harlan Sprague Dawley
Rat [5] = experiment: concentration in brain after dosing; settings: 5 min; dosed: 2-Methyltetrahydrofuran; 100 mg/kg; oral; Female; Harlan Sprague Dawley
Rat [6] = experiment: concentration in brain after dosing; settings: 2 h; dosed: 2-Methyltetrahydrofuran; 10 mg/kg; oral; Female; F344
Rat [7] = experiment: concentration in brain after dosing; settings: 1.5 h; dosed: 2-Methyltetrahydrofuran; 100 mg/kg; oral; Female; Harlan Sprague Dawley
Rat [8] = experiment: concentration in plasma after dosing; settings: 0.25 h; dosed: 2-Methyltetrahydrofuran; 10 mg/kg; iv; Male; F344
Rat [9] = experiment: concentration in plasma after dosing; settings: 5 min; dosed: 2-Methyltetrahydrofuran; 100 mg/kg; oral; Female; Harlan Sprague Dawley
Rat [10] = experiment: concentration in plasma after dosing; settings: 2.5 h; dosed: 2-Methyltetrahydrofuran; 10 mg/kg; oral; Male; F344
Rat [11] = experiment: concentration in plasma after dosing; settings: 1.5 h; dosed: 2-Methyltetrahydrofuran; 10 mg/kg; iv; Male; F344
Rat [12] = experiment: concentration in plasma after dosing; settings: 1 h; dosed: 2-Methyltetrahydrofuran; 10 mg/kg; iv; Female; F344
Rat [13] = experiment: concentration in plasma after dosing; settings: 20 min; dosed: 2-Methyltetrahydrofuran; 30 mg/kg; oral; Female; F344
Rat [14] = experiment: concentration in plasma after dosing; settings: 0.75 h; dosed: 2-Methyltetrahydrofuran; 100 mg/kg; oral; Male; Harlan Sprague Dawley
Rat [15] = experiment: concentration in plasma after dosing; settings: 1.5 h; dosed: 2-Methyltetrahydrofuran; 30 mg/kg; oral; Male; F344
Rat [16] = experiment: concentration in plasma after dosing; settings: 2 min; dosed: 2-Methyltetrahydrofuran; 10 mg/kg; oral; Female; F344
Rat [17] = experiment: concentration in plasma after dosing; settings: dosed: Bromochloroacetic acid, 100 mg/kg, oral, Female, F344
Rat [18] = experiment: concentration in plasma after dosing; settings: dosed: Bromochloroacetic acid, 100 mg/kg, oral, Female, F344; remark: listed apart in the source
Rat [19] = experiment: concentration in plasma after dosing; settings: 48 h; dosed: Fluorotelomer alcohol 8+2; 160 mg/kg; oral; Female; Harlan Sprague Dawley
Rat [20] = experiment: concentration in plasma after dosing; settings: 12 h; dosed: Fluorotelomer alcohol 8+2; 24 mg/kg; oral; Male; Harlan Sprague Dawley
Rat [21] = experiment: concentration in plasma after dosing; settings: dosed: Fluorotelomer alcohol 8+2, 160 mg/kg, oral, Female, Harlan Sprague Dawley
Rat [22] = experiment: concentration in plasma after dosing; settings: 0.5 h; dosed: Fluorotelomer alcohol 8+2; 80 mg/kg; oral; Female; Harlan Sprague Dawley
Rat [23] = experiment: concentration in plasma after dosing; settings: dosed: Formamide, 300 mg/kg, oral, Female, Harlan Sprague Dawley
Rat [24] = experiment: concentration in plasma after dosing; settings: dosed: Formamide, 300 mg/kg, oral, Female, Harlan Sprague Dawley; remark: listed apart in the source
Rat [25] = experiment: concentration in plasma after dosing; settings: dosed: Formamide, 90 mg/kg, iv, Male, Harlan Sprague Dawley
Rat [26] = experiment: concentration in plasma after dosing; settings: dosed: Formamide, 300 mg/kg, oral, Female, Harlan Sprague Dawley; remark: listed apart in the source
Rat [27] = experiment: concentration in plasma after dosing; settings: dosed: Formamide, 600 mg/kg, oral, Male, Harlan Sprague Dawley
Rat [28] = experiment: concentration in plasma after dosing; settings: 4 h; dosed: Pyridine; 50 mg/kg; oral; Male; Harlan Sprague Dawley
Rat [29] = experiment: concentration in plasma after dosing; settings: 9 h; dosed: Pyridine; 200 mg/kg; oral; Female; Harlan Sprague Dawley
Rat [30] = experiment: concentration in plasma after dosing; settings: 0.25 h; dosed: Pyridine; 0.5 mg/kg; iv; Male; F344
Rat [31] = experiment: concentration in plasma after dosing; settings: dosed: Pyridine, 100 mg/kg, oral, Male, F344
Rat [32] = experiment: concentration in plasma after dosing; settings: 1 h; dosed: Pyridine; 50 mg/kg; oral; Male; Harlan Sprague Dawley
Rat [33] = experiment: concentration in plasma after dosing; settings: 20 min; dosed: Pyridine; 50 mg/kg; oral; Male; Harlan Sprague Dawley
Rat [34] = experiment: concentration in plasma after dosing; settings: dosed: Pyridine, 25 mg/kg, oral, Female, F344
Rat [35] = experiment: concentration in plasma after dosing; settings: 2 h; dosed: Pyridine; 10 mg/kg; iv; Male; Harlan Sprague Dawley
Rat [36] = experiment: concentration in plasma after dosing; settings: 2 min; dosed: Pyridine; 50 mg/kg; oral; Female; F344
Rat [37] = experiment: concentration in plasma after dosing; settings: 2 min; dosed: Pyridine; 200 mg/kg; oral; Female; Harlan Sprague Dawley

CC1CCCO1 (configuration not stated) [2-Methyltetrahydrofuran]
Settings | concentration in brain [µg/g] | concentration in plasma [ng/mL]
Rat [1] | 116 | –
Rat [2] | 0.0557 | –
Rat [3] | 4.74 | –
Rat [4] | 68.4 | –
Rat [5] | 60.1 | –
Rat [6] | 0.0568 | –
Rat [7] | 59.4 | –
Rat [8] | – | 9640
Rat [9] | – | 36800
Rat [10] | – | 68
Rat [11] | – | 705
Rat [12] | – | 1990
Rat [13] | – | 16000
Rat [14] | – | 38800
Rat [15] | – | 9950
Rat [16] | – | 753

O=C(O)C(Cl)Br (configuration not stated) [Bromochloroacetic acid]
concentration in plasma [ng/mL]
Settings | 0.25 h | 1.5 h | 2 min | 6 h
Rat [17] | – | 19800 | 3960 | –
Rat [18] | 20300 | – | – | 1750

OCCC(F)(F)C(F)(F)C(F)(F)C(F)(F)C(F)(F)C(F)(F)C(F)(F)C(F)(F)F [Fluorotelomer alcohol 8+2]
Settings | concentration in plasma [ng/mL]
Rat [19] | 3.89
Rat [20] | 10.7
Rat [22] | 682

Rat [21]
Settings | concentration in plasma [ng/mL]
1 h | 1540
24 h | 98.7

NC=O [Formamide]
Settings | concentration in plasma [ng/mL]
Rat [23], 1.5 h | 228000
Rat [23], 30 h | 166000
Rat [24], 2 h | 252000
Rat [24], 5 min | 55500
Rat [25], 0.5 h | 118000
Rat [25], 48 h | 5700
Rat [26], 0.25 h | 137000
Rat [26], 5 h | 267000
Rat [27], 0.25 h | 362000
Rat [27], 5 h | 737000

c1ccncc1 [Pyridine]
Settings | concentration in plasma [ng/mL]
Rat [28] | 21500
Rat [29] | 75400
Rat [30] | 302
Rat [32] | 26800
Rat [33] | 20600
Rat [35] | 2210
Rat [36] | 34200
Rat [37] | 105000

concentration in plasma [ng/mL]
Settings | Rat [31] | Rat [34]
1 h | 64700 | 17100
8 h | 66900 | 13900
